# Source: paper PMC4336329 (PLoS ONE, 2015)
# Screen size: about 310,000 compounds; about 14,000 (4.5%) showed an effect of 50% or more. Effects have a minus sign here. The list shows a part of the results.
# Molecular target: human ether-à-go-go-related gene (hERG) potassium channel (human, UniProt Q12809)
# Experiment: primary screen, population patch clamp on CHO cells stably expressing hERG
# 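Also: peak tail current of the secondary pulse compared with the same well before compound.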
# human ether-à-go-go-related gene (hERG) potassium channel, sequence (Q12809 whole entry, looked up): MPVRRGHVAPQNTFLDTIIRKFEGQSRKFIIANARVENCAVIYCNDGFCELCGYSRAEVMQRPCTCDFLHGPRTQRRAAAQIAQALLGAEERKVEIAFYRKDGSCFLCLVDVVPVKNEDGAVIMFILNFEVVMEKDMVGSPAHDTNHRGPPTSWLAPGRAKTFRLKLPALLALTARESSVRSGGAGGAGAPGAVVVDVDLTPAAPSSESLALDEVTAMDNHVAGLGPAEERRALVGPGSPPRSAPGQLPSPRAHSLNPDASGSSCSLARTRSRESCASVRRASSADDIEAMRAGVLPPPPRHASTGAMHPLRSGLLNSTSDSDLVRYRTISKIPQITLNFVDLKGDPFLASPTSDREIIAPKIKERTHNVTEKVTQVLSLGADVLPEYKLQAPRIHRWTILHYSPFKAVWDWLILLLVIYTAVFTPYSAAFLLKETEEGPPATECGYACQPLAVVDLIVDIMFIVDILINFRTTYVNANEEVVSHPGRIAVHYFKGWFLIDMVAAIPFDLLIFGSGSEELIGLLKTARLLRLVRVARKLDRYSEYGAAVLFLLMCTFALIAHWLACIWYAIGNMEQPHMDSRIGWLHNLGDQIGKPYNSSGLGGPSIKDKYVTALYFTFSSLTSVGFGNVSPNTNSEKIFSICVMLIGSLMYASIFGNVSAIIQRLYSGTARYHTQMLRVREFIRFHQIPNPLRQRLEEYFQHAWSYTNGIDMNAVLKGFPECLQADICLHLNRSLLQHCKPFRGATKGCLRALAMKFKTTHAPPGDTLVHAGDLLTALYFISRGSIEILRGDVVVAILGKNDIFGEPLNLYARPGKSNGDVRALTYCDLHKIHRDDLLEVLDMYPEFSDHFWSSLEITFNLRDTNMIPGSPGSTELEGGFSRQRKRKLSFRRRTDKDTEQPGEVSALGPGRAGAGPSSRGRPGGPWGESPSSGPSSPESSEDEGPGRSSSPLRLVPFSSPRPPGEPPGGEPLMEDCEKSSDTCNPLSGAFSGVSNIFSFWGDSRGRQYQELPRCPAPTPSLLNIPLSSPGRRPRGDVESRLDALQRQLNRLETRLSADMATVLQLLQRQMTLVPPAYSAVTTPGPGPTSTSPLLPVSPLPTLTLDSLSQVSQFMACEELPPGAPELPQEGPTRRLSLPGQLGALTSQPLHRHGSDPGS
row,SMILES,"hERG current change (%, negative = inhibition) at 10uM [%]"
1,CCCN(C(=O)CSc1ncnc2sccc12)c1c(N)n(Cc2ccccc2)c(=O)[nH]c1=O,-11
2,CCCCOC(=O)c1nnc(-c2ccc(Cl)cc2)o1,-1.95
3,O=[N+]([O-])c1cccc(OCc2cn3cccnc3n2)c1,0.503
4,CC(C)c1nc(CNC(=O)c2ccc(OC3CCN(Cc4ccccn4)CC3)cc2)cs1,-16.6
5,CCc1ccc(C(=O)Cc2cc3cccc(OC)c3oc2=O)cc1,11.2
6,Cc1nc2scc(-c3ccc(C(C)C)cc3)c2c(=O)n1N,11.8
7,O=C(CSc1ccc2nnc(-c3cccnc3)n2n1)Nc1ccccc1,-17.8
8,COc1ccc(-c2nnc(N(C)C(=O)C3CCOC3)s2)cc1 (centres unmarked),9.84
9,COc1ccc2cc(C(C)C(=O)O)ccc2c1 (centres unmarked),7.65
10,Cn1c(CN2CCN(c3cccc(Cl)c3)CC2)nc2ccccc21,-44.7
11,COc1ccc(CCN(C(=O)c2ccco2)C(C(=O)NC2CCCC2)c2ccncc2)cc1OC (centres unmarked),-55
12,COC(=O)Cn1ncc(N2CC(C)OC(C)C2)c(Cl)c1=O (centres unmarked),22.6
13,CC(C(=O)NCc1ccccn1)c1ccc([N+](=O)[O-])cc1 (centres unmarked),-49.5
14,CC(=O)NC(Cc1ccccc1F)C(=O)NC1CCN(C(=O)NCc2ccccc2)CC1 (centres unmarked),14.8
15,O=C(O)/C=C\C(=O)Nc1ccccc1C#Cc1ccccc1,3.73
16,O=c1ccc(=O)n(-c2ccccc2)[nH]1,6.5
17,CCOC(=O)Nc1cc(C(=O)OC)ccc1C,-2.44
18,Cc1ccc2[nH]c(=S)cc(C)c2c1,19.9
19,CSc1nnc(C)c(=O)n1COC(=O)c1ccc(S(=O)(=O)N2CCCC2)cc1,-22.8
20,CCC(Oc1ccccc1)C(=O)Nc1ccc(S(=O)(=O)Nc2cnc3ccccc3n2)cc1 (centres unmarked),-4.59
21,O=C(NCc1ccco1)c1nn(-c2ccccc2)c(=O)c2ccccc12,-12.4
22,Cc1ccc(C)c(/C=N/n2cc(-c3ccccc3)[nH]c2=S)c1,21.8

row,SMILES,"hERG current change (%, negative = inhibition) at 10uM [%]"
1,Cc1ccc(SCC(=O)NC(=O)Nc2ccc3c(c2)OCCO3)c(C)c1,4.24
2,Cc1ccc(C2=NOC(c3nnc(-c4ccccc4)o3)C2)cc1 (centres unmarked),-0.301
3,COc1ccc(-c2nc(CS(=O)CC(=O)NCCN3CCCCC3C)c(C)o2)cc1OC (centres unmarked),16.8
4,Cn1nc(-c2ccc(Cl)cc2)c2cc(C(=O)NCc3ccco3)sc21,-2.54
5,CC(Sc1nc(-c2ccccc2)cc(C(F)(F)F)n1)C(=O)O (centres unmarked),20
6,Cc1ccc2oc(=O)n(CCCOc3ccccc3)c2c1,-20.3
7,COc1cc(S(C)=O)ccc1-c1nc2ncccc2[nH]1 (centres unmarked),4.97
8,O=C(CN1C(=O)CCC1=O)c1ccc(-c2ccccc2)cc1,-6.79
9,CN(C)S(=O)(=O)c1cccc(COc2ncnc3c(Cl)cc(Cl)cc23)c1,5.03
10,CCC1COCCS(=O)(=O)N1Cc1ccccc1 (centres unmarked),7.65
11,CC1(C)Oc2cc3oc(-c4cc(O)cc(O)c4)cc3cc2CC1O (centres unmarked),9.93
12,COc1cccc(-c2nc(-c3ccccc3)c(-c3ccccc3)[nH]2)c1OCC(=O)O,10.5
13,COc1cc(C(=O)N(Cc2ccc(N(C)C)cc2)C2CCS(=O)(=O)C2)cc(OC)c1OC (centres unmarked),-1.43
14,COc1ccc(S(=O)(=O)NCCc2ccccc2)cc1,-9.27
15,O=C(NNC(=O)c1ccccc1Br)c1ccncc1,10.1
16,CCC[C@@H](CN[C@@H](CNC)[C@H](C)CC)NCC1CCC(C(C)(C)C)CC1 (some centres unmarked),-4.33
17,COc1cc2c(cc1OC)CN(C(=O)C(C)(C)C)CC2,17.6
18,Nc1c(C(=O)Nc2ccc3c(c2)OCCO3)nnn1Cc1ccccc1,-3.13
19,COc1ccc(OC)c(NC(=O)CSc2nncc3ccc(OC)c(OC)c23)c1,6.73
20,COc1cc(C2C(C#N)=C(N)N(c3sc4c(c3C#N)CCCC4)C3=C2C(=O)CC(C)(C)C3)cc(OC)c1OC (centres unmarked),-18.6
21,COc1ccc(N(C(=O)Cn2nnc(-c3ccc(C)o3)n2)C(C(=O)NC2CCCC2)c2ccncc2)cc1 (centres unmarked),14.8
22,S=C(NCc1ccco1)Nc1ccc(Cl)cc1,-0.891
